Article PMC13263796
No constants are given. Whether binding was seen depends on the method and setting. For some of these results: In cells and extracts the contact can be indirect. Some binding calls cover weakened binding; strength is not graded here. Sequences can lack the tags named with a protein.

T1: BD-Atg9 (S. cerevisiae) (UniProt Q12142)
T1 sequence: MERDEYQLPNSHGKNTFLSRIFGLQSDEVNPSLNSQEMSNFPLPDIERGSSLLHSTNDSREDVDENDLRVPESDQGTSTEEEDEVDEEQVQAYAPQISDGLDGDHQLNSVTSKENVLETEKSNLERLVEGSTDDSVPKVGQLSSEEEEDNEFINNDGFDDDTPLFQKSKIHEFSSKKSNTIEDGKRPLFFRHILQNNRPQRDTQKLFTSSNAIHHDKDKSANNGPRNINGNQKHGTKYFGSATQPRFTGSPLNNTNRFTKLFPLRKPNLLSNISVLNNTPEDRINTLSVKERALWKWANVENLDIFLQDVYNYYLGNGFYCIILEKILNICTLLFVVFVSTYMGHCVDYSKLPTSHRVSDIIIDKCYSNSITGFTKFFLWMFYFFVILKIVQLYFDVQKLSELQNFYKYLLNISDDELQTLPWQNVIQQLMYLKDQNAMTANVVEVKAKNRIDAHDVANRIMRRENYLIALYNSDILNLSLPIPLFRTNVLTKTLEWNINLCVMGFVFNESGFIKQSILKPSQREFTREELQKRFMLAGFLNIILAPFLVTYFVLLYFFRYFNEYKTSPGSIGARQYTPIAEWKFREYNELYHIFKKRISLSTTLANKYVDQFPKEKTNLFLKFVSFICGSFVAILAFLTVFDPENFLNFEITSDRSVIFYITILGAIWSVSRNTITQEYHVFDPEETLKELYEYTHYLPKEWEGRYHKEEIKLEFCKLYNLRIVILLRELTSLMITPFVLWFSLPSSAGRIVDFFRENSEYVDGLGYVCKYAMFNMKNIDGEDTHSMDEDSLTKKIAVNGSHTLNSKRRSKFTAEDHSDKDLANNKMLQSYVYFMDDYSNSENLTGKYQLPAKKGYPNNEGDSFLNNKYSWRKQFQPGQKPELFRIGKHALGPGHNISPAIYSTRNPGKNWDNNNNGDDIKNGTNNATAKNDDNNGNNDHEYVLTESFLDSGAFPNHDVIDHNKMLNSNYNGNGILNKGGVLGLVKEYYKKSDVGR

T2: Atg9-PA (S. cerevisiae) (UniProt Q12142)
T2 sequence: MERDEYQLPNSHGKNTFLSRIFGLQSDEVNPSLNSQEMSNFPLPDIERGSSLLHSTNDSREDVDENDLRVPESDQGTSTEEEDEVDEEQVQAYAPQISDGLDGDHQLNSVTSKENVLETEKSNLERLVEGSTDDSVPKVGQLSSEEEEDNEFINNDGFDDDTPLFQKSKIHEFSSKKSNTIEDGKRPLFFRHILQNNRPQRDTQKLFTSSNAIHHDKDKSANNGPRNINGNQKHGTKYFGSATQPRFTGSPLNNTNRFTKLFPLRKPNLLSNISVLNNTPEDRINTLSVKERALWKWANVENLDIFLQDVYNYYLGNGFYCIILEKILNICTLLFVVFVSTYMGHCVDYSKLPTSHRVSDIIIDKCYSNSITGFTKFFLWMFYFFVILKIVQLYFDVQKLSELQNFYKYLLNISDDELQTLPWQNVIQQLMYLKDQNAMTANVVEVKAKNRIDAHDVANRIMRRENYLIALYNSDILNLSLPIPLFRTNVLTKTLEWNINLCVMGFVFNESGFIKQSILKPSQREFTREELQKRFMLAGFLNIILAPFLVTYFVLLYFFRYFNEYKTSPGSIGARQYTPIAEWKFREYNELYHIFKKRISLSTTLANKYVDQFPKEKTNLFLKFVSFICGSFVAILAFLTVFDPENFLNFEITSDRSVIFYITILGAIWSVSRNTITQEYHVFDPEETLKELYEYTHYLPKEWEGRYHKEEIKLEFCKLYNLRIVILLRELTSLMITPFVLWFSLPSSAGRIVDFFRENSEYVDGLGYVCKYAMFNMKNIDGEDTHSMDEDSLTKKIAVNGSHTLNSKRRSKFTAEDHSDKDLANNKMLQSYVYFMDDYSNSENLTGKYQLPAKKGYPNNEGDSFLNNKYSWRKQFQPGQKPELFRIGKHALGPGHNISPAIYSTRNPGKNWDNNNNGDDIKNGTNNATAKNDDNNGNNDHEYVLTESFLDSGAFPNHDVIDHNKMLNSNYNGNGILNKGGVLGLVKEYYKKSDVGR


Key:
BD-Atg9 (S. cerevisiae) = biological target: T1, BD-Atg9 (S. cerevisiae); test: two-hybrid; BD-ATG9 with AD-ATG11 or mutants in multiple-knockout yeast YCY149 (lacking 25 ATG genes); growth on SMD -ura -leu -his with 1.5 mM 3-amino-triazol, 4-5 days at 30°C
Atg9-PA (S. cerevisiae) = biological target: T2, Atg9-PA (S. cerevisiae); test: co-IP; overexpressed GFP-Atg11 co-precipitated by overexpressed Atg9-PA from yeast in growing conditions (SMD -ura -trp, log phase); washes at 4°C; blots probed with anti-GFP

| binding (BD-Atg9 (S. cerevisiae)) | binding (Atg9-PA (S. cerevisiae)) | Binder |
| --- | --- | --- |
| no binding | – | AD-atg11ΔCC2 (protein, UniProt Q12527) MADADEYSTAPTQQEITPLQTTATIINAISGECITTNVDFFVSLDKFKQFIARKWKIPPDQLLILLPYGNKLKPSMFKELLINRSFTLNDFYVYDRRLFSLVSKPTPTNLLTSKDSNPMNSPNSNDLTETLEYLIKNSHISQYQGSDTIMIKPMPSPLEDADVDLSRLNYHSVTSLLTTNLGWLSALEIDVHYFKSLIPDIIAHIKRIFDGLTVCSQYLKLYCFDVESLYNSNVQFLNQLVDNGMTSKWEKCFNDTLSKLTALEGDSLQKFINIESLLENEKSVKILNHSINGKLNKIKREIDENASFRDIITVNIDRLRQMFTPNESKFELEDQMAESFEVLVSEMRTRSRNVLDKEEEEFNSQEFLKSMNVMLEKDKKESVKTLFTISQALYSQIGELIDLKKSLQKHAVAILGNIAFTQMEILGIKRLLLNECNKDLELYKKYEVEFAQVEDLPLIYGLYLIEKYRRLSWFQQILSFISNFNQDLELFKQNELRTRNKWVKNFGSIATVFCEDLLSSSDFKRLNEYHSHTSPPIIDLLSKTLFETKRFHIIYSNFKNNNNNSSNGNSISPEGSIALKSDDVVKGYKTRIKKLESLLHEFQYSDIGHWPQGVLNTHLKPFRGSATSINKKKFLGASVLLEPANISEVNIDSVSQANNHQIQELESNVDDLLHQLQLLKEENNRKSMQISEMGKKISDLEVEKTAYRETLTNLNQELARLTNEEQSHRTEIFTLNASFKKQLNDIISQDNEKIEKLTGDYDDVSKSRERLQMDLDESNKKHEQEVNLLKADIERLGKQIVTSEKSYAETNSSSMEKGEKFETIPLAEDPGRENQISAYTQTLQDRIFDIISTNIFILENIGLLLTFDNNNNIQIRRVKGLKKGTAQSNILDESTQMLDAHDNSLIKSPVFQKLKDEYELIKSVANGSEKDTQQSIFLGNITQLYDNKLYEVAVIRRFKDIETLAKKLTKENKIKRTLLERFQREKVTLRNFQIGDLALFLPTRENVNSVGSMSSSTSSLSSSFSSVDLSTPPPLDAMSIQSSPSVIHSNVINQASISGRDKNKLMRPWAAFTAFEESTRYFLKDEKGLTKGKEWFVGRIVTLEHFVADSPSNNPFRLPKGSVWFQVTAVVVSYQGV |
| – | binds | GFP-Atg11 WT (protein, UniProt Q12527 1-1178) MADADEYSTAPTQQEITPLQTTATIINAISGECITTNVDFFVSLDKFKQFIARKWKIPPDQLLILLPYGNKLKPSMFKELLINRSFTLNDFYVYDRRLFSLVSKPTPTNLLTSKDSNPMNSPNSNDLTETLEYLIKNSHISQYQGSDTIMIKPMPSPLEDADVDLSRLNYHSVTSLLTTNLGWLSALEIDVHYFKSLIPDIIAHIKRIFDGLTVCSQYLKLYCFDVESLYNSNVQFLNQLVDNGMTSKWEKCFNDTLSKLTALEGDSLQKFINIESLLENEKSVKILNHSINGKLNKIKREIDENASFRDIITVNIDRLRQMFTPNESKFELEDQMAESFEVLVSEMRTRSRNVLDKEEEEFNSQEFLKSMNVMLEKDKKESVKTLFTISQALYSQIGELIDLKKSLQKHAVAILGNIAFTQMEILGIKRLLLNECNKDLELYKKYEVEFAQVEDLPLIYGLYLIEKYRRLSWFQQILSFISNFNQDLELFKQNELRTRNKWVKNFGSIATVFCEDLLSSSDFKRLNEYHSHTSPPNEDEEDENENSIANYRQDLVKVSQAIDNYMTQIKETDVSEPIIDLLSKTLFETKRFHIIYSNFKNNNNNSSNGNSISPEGSIALKSDDVVKGYKTRIKKLESLLHEFQYSDIGHWPQGVLNTHLKPFRGSATSINKKKFLGASVLLEPANISEVNIDSVSQANNHQIQELESNVDDLLHQLQLLKEENNRKSMQISEMGKKISDLEVEKTAYRETLTNLNQELARLTNEEQSHRTEIFTLNASFKKQLNDIISQDNEKIEKLTGDYDDVSKSRERLQMDLDESNKKHEQEVNLLKADIERLGKQIVTSEKSYAETNSSSMEKGEKFETIPLAEDPGRENQISAYTQTLQDRIFDIISTNIFILENIGLLLTFDNNNNIQIRRVKGLKKGTAQSNILDESTQMLDAHDNSLIKSPVFQKLKDEYELIKSVANGSEKDTQQSIFLGNITQLYDNKLYEVAVIRRFKDIETLAKKLTKENKIKRTLLERFQREKVTLRNFQIGDLALFLPTRENVNSVGSMSSSTSSLSSSFSSVDLSTPPPLDAMSIQSSPSVIHSNVINQASISGRDKNKLMRPWAAFTAFEESTRYFLKDEKGLTKGKEWFVGRIVTLEHFVADSPSNNPFRLPKGSVWFQVTAVVVSYQGV |
| – | binds | GFP-Atg11 YDLL (protein, UniProt Q12527 1-1178) MADADEYSTAPTQQEITPLQTTATIINAISGECITTNVDFFVSLDKFKQFIARKWKIPPDQLLILLPYGNKLKPSMFKELLINRSFTLNDFYVYDRRLFSLVSKPTPTNLLTSKDSNPMNSPNSNDLTETLEYLIKNSHISQYQGSDTIMIKPMPSPLEDADVDLSRLNYHSVTSLLTTNLGWLSALEIDVHYFKSLIPDIIAHIKRIFDGLTVCSQYLKLYCFDVESLYNSNVQFLNQLVDNGMTSKWEKCFNDTLSKLTALEGDSLQKFINIESLLENEKSVKILNHSINGKLNKIKREIDENASFRDIITVNIDRLRQMFTPNESKFELEDQMAESFEVLVSEMRTRSRNVLDKEEEEFNSQEFLKSMNVMLEKDKKESVKTLFTISQALYSQIGELIDLKKSLQKHAVAILGNIAFTQMEILGIKRLLLNECNKDLELYKKYEVEFAQVEDLPLIYGLYLIEKARRLSWFQQILSFISNFNQDLELFKQNELRTRNKWVKNFGSIATVFCEAALSSSDFKRANEYHSHTSPPNEDEEDENENSIANYRQDLVKVSQAIDNYMTQIKETDVSEPIIDLLSKTLFETKRFHIIYSNFKNNNNNSSNGNSISPEGSIALKSDDVVKGYKTRIKKLESLLHEFQYSDIGHWPQGVLNTHLKPFRGSATSINKKKFLGASVLLEPANISEVNIDSVSQANNHQIQELESNVDDLLHQLQLLKEENNRKSMQISEMGKKISDLEVEKTAYRETLTNLNQELARLTNEEQSHRTEIFTLNASFKKQLNDIISQDNEKIEKLTGDYDDVSKSRERLQMDLDESNKKHEQEVNLLKADIERLGKQIVTSEKSYAETNSSSMEKGEKFETIPLAEDPGRENQISAYTQTLQDRIFDIISTNIFILENIGLLLTFDNNNNIQIRRVKGLKKGTAQSNILDESTQMLDAHDNSLIKSPVFQKLKDEYELIKSVANGSEKDTQQSIFLGNITQLYDNKLYEVAVIRRFKDIETLAKKLTKENKIKRTLLERFQREKVTLRNFQIGDLALFLPTRENVNSVGSMSSSTSSLSSSFSSVDLSTPPPLDAMSIQSSPSVIHSNVINQASISGRDKNKLMRPWAAFTAFEESTRYFLKDEKGLTKGKEWFVGRIVTLEHFVADSPSNNPFRLPKGSVWFQVTAVVVSYQGV |
| no binding | – | AD-atg11Δ455-535 (protein, UniProt Q12527) MADADEYSTAPTQQEITPLQTTATIINAISGECITTNVDFFVSLDKFKQFIARKWKIPPDQLLILLPYGNKLKPSMFKELLINRSFTLNDFYVYDRRLFSLVSKPTPTNLLTSKDSNPMNSPNSNDLTETLEYLIKNSHISQYQGSDTIMIKPMPSPLEDADVDLSRLNYHSVTSLLTTNLGWLSALEIDVHYFKSLIPDIIAHIKRIFDGLTVCSQYLKLYCFDVESLYNSNVQFLNQLVDNGMTSKWEKCFNDTLSKLTALEGDSLQKFINIESLLENEKSVKILNHSINGKLNKIKREIDENASFRDIITVNIDRLRQMFTPNESKFELEDQMAESFEVLVSEMRTRSRNVLDKEEEEFNSQEFLKSMNVMLEKDKKESVKTLFTISQALYSQIGELIDLKKSLQKHAVAILGNIAFTQMEILGIKRLLLNECNKDLELYKKYEVEFAQVEPNEDEEDENENSIANYRQDLVKVSQAIDNYMTQIKETDVSEPIIDLLSKTLFETKRFHIIYSNFKNNNNNSSNGNSISPEGSIALKSDDVVKGYKTRIKKLESLLHEFQYSDIGHWPQGVLNTHLKPFRGSATSINKKKFLGASVLLEPANISEVNIDSVSQANNHQIQELESNVDDLLHQLQLLKEENNRKSMQISEMGKKISDLEVEKTAYRETLTNLNQELARLTNEEQSHRTEIFTLNASFKKQLNDIISQDNEKIEKLTGDYDDVSKSRERLQMDLDESNKKHEQEVNLLKADIERLGKQIVTSEKSYAETNSSSMEKGEKFETIPLAEDPGRENQISAYTQTLQDRIFDIISTNIFILENIGLLLTFDNNNNIQIRRVKGLKKGTAQSNILDESTQMLDAHDNSLIKSPVFQKLKDEYELIKSVANGSEKDTQQSIFLGNITQLYDNKLYEVAVIRRFKDIETLAKKLTKENKIKRTLLERFQREKVTLRNFQIGDLALFLPTRENVNSVGSMSSSTSSLSSSFSSVDLSTPPPLDAMSIQSSPSVIHSNVINQASISGRDKNKLMRPWAAFTAFEESTRYFLKDEKGLTKGKEWFVGRIVTLEHFVADSPSNNPFRLPKGSVWFQVTAVVVSYQGV |
